Laboratory results published in PubChem BioAssay AID2451 (National Center for Advancing Translational Sciences (NCATS), 2010).
The campaign covered roughly 290,000 compounds. About 2,100 (0.72%) were called active. Inconclusive means that the source gave no clear call. Such entries were picked first, then a sample of the others. The call rests on the fitted dose curve; in most records, active means well fitted inhibition curve with a large enough effect; inconclusive means small, poorly fitted or top-dose-only effect, or effect the other way; inactive means flat fitted curve, though single readings scatter. Potencies beside an inconclusive call are fits to weak or partial responses and may not hold up.

What follows are molecules tested against Fructose-bisphosphate aldolase (Giardia intestinalis (strain ATCC 50803 / WB clone C6)) (UniProt A8B2U2) (assay: qHTS Assay for Inhibitors of Fructose-1,6-bisphosphate Aldolase from Giardia Lamblia). Conditions: purified Giardia FBPA; activity, negative = inhibition: at 59.6 µM (top of the series) unless noted.
UniProt A8B2U2, sequence (A8B2U2 whole entry, looked up): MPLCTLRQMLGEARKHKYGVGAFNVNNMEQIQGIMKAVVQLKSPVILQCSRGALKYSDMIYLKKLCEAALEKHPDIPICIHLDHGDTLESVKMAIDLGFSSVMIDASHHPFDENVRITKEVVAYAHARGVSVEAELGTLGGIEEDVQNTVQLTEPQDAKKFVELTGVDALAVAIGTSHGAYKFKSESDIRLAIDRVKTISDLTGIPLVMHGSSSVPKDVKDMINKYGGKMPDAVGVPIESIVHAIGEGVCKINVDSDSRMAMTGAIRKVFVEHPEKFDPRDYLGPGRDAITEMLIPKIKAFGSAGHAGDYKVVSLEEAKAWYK
Description: Assay Provider: Osnat Herzberg, University of Maryland
The objective of this project is to obtain compounds that inhibit Giardia lamblia growth. G. lamblia is a human pathogen which afflicts impoverished nations; it is the most common cause of outbreaks of diarrhea in the United States. During the course of our study of potential drug targets in Giardia, we have identified the Class II (Zn2+ functions in electrophilic catalysis) fructose-1,6-bisphosphate aldolase (FBPA) as an excellent candidate for drug targeting. FBPA is a key glycolytic pathway enzyme, essential for G. lamblia survival. The human FBPA belongs to the Class I aldolases, which have a different substrate binding site structure and a radically different catalytic mechanism (employing a lysine-Schiff base intermediate). Therefore, affinity-based or mechanism-based inhibitors of the Giardia FBPA are expected not to interfere with the catalytic function of the human FBPA.
A glyceraldehyde-3-phosphate dehydrogenase/triose phosphate isomerase/NAD/arsenate coupled assay was adapted to the 1536-well HTP format for use in the primary screen. This was done by coupling it to a diaphorase/resazurin/resorufin reaction that can be monitored by fluorescence (excitation, 544 nm; emission, 590 nm). Compounds identified in this screen will be further evaluated by coupling the glycerol-3-phosphate/triose phosphate isomerase/NADH assay to a phenazine methosulfate/tetranitroblue tetrazolium color reaction. False positives due to the dehydrogenases and diaphorase inhibition will be eliminated, and selectivity assay will triage inhibitors of mammalian triose phosphate isomerase and the Class I FBPA. G. lamblia FBPA inhibitors identified by the in vitro analyses will be examined for growth inhibition of Giardia trophozoites, and for cytotoxicity in human cells.
Step,Parameter,Value,Description
1,Enzyme reagent,2 uL,40 nM FBPA
2,Compound,23 nL,3.68 nM-57.5 uM final concentration
3,Time,10 min,RT Incubation
4,Substrate/detection Reagent,2 uL,Substrate + enzyme coupling system + AmpLite Red kit
5,Time,20 min,RT Incubation
6,Detector,525 nm/598 nm (Fluorescence),ViewLux Fluorescence Read (Read 1)
1,Medium-binding black solid-bottom Kalypsys plates. FRD or Kalypsys dispenser, 2 uL of FBPA enzyme. Bottle kept at 4C.
2,Compound Library (10 mM ,1:5 dilution). Pin-transferred for a [final] range of 3.68 nM-57.5 uM.
4,FRD or Kalypsys dispenser, 2 uL of reaction mixture. Bottle kept at 4C and covered in foil to protect from light.
6,ViewLux Protocol 1194; Excitation filter wheel A (525/20 Pol; BODIPY TMR FP), Emission filter wheel B (598/25 S; BODIPY TMR FP S).
Keywords: Fructose-bisphosphate aldolase, FBPA , Giardia lamblia , Giardia, HTS, Inhibitors
Further: nearly all actives have a fitted effect of over 55% in size.
On the % scale 0 is the no-effect control and ±100 the full control effect; potency means the concentration at half of the fitted maximal effect; tags describe the fitted curve by direction and shape.

Row | SMILES | Potency | activity, negative = inhibition
1 | CSc1nc(NCC(C)O)c2c3c(sc2n1)CN(C)CC3 (stereo unspecified) | inconclusive: 14.1 µM [inhibitor, partial curve] | –
2 | CC(C)C(=O)Nc1cccc(-c2nc3ncccc3o2)c1 | – | inactive: 14.5%
3 | CN1CCN(C(=O)CCN2C(=O)S/C(=C/c3ccc(Cl)cc3)C2=O)CC1 | – | inactive: 2.16%
4 | COc1cccc(Oc2cc(Cl)nc(N)n2)c1 | – | inactive: 0.0211%
5 | CCNC(=S)NNc1nnc(-c2ccccc2)c(-c2ccccc2)n1 | inconclusive: 7.94 µM [activator, partial curve] | –
6 | COc1ccc2oc(C(=O)OC/C(O)=C(\C#N)c3nc4ccccc4[nH]3)c(C)c2c1 | – | inactive: -21.1%
7 | Cc1nc2sc(C(c3ccco3)N3CC(C)OC(C)C3)c(O)n2n1 (stereo unspecified) | inconclusive: 17.7 µM [inhibitor, partial curve] | –
8 | O=C1NC(c2ccccc2)=N/C1=C/c1ccco1 | inconclusive: 22.3 µM [inhibitor, single point] | –
9 | Cn1cccc1/C=C1\CC(C(C)(C)C)C/C(=C\c2cccn2C)C1=O (stereo unspecified) | – | inactive: -14.6%
10 | CCN(CC)CCNc1nc(-c2cccs2)c(CC(=O)O)s1 | inconclusive: 15.8 µM [inhibitor, partial curve] | –
11 | NNc1nc2sc3c(c2c(=O)[nH]1)CCc1ccccc1-3 | inconclusive: 4.46 µM [inhibitor, single point] | –
12 | Cc1cccc(CNc2ncc(-c3cccc([N+](=O)[O-])c3)n2C)c1 | inconclusive: 25.1 µM [inhibitor, single point] | –
13 | CC(=O)Nc1ccc2nc(-c3ccccn3)[nH]c2c1 | inconclusive: 4.46 µM [activator, single point] | –
14 | Cc1cc(C)c(S(=O)(=O)Nc2cc(SCC(=O)O)c(O)c3ccccc23)cc1C | active: 3.97 µM | –
15 | COc1ccc(N2CCN(C(c3cccs3)C(C)NS(=O)(=O)c3ccccc3)CC2)cc1 (stereo unspecified) | – | inactive: -1.51%
16 | Cc1ccc(C(=O)Nc2ncc(Cc3ccc(SC(F)F)cc3)s2)cc1 | – | inactive: 6.92%
17 | Cc1cc(C)nc(-n2nc(C)cc2NC(=O)CN2CCc3ccccc3C2)n1 | inconclusive: 17.7 µM [inhibitor, single point] | –
18 | Cc1c(OCC(=O)N(C)c2ccccc2)ccc2c3c(c(=O)oc12)CCC3 | – | inactive: -0.664%
19 | CCOc1cccc(CN2CCN(c3cccc(C(F)(F)F)c3)CC2)c1O | inconclusive: 35.4 µM [inhibitor, single point] | –
20 | Cc1ccc2nc(/C(C#N)=C/c3ccc(O)c(O)c3)[nH]c2c1 | inconclusive: 11.2 µM [inhibitor, partial curve] | –
21 | COc1ccc(CNc2ccnc(-c3ccccc3CN(C)C)n2)c(OC)c1 | – | inactive: 6.24%
